From the supplement of paper PMC11417369 come the findings set out here.

Some of the results follow.

For the experiment, the system named is PfSIP2 AP2 domain 1 (GST-tagged). The experiment in a line: gcPBM binding intensity (ln(normalized median fluorescence intensity)); higher = stronger DNA binding. The gist of the method: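 Plasmodium falciparum DNA-binding domains carrying a GST tag were expressed in E. coli and applied for 1 h, at about 25 μg on average, to an Agilent 4 × 180k array. The array held primer-extended double-stranded 36-bp intergenic genomic probes together with negative controls, and binding took place in 1× PBS with 1% milk, 0.2 mg/ml BSA, 0.5% salmon testes DNA and 0.03% Triton X-100. An Alexa488 anti-GST antibody detected bound protein, and the array was scanned at 488 nm. Binding intensity is taken as the highest Masliner-normalised natural-log median intensity across replicate spots of either probe orientation.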
On to “TAAAAAAAAAAATGAACATGCAACAATTGTGATGAA [TGCATGCA_site332]”, for which the “gcPBM binding intensity (ln)” value was 6.61.

“ACTGTAACAATCATGGGTACAAATAAAATAATATCT [XGTACX_site99]”: the “gcPBM binding intensity (ln)” value was determined as 7.16. As for “ATGAAAATTATAAAGTGTACATATAGAAACATTTAC [XGTACX_site8047]”, the “gcPBM binding intensity (ln)” value was determined as 6.98. On to “TTTTGTCTTATATGTTGTACAACGTAAACAAAAAAA [XGTACX_site4412]”, for which the “gcPBM binding intensity (ln)” value was determined as 7.52. For the sequence “AAAAGAATATATAATTGTACTTAAAATATAATTAAG [XGTACX_site4484]”, the “gcPBM binding intensity (ln)” value stood at 6.86. Take “AAAAAAATTAAACATGAAGAATAAGGAACAAAAAAA [CACACA_negctrl_site1607]”: the “gcPBM binding intensity (ln)” value amounted to 6.9. As for “TTTAATCATATGTTATATAATAAGCCCCCCCCCCAA [CACACA_negctrl_site486]”, the “gcPBM binding intensity (ln)” value was determined as 10.2. Next, “ATTTAAGTAGTACATACACACACATATACAAAAAGA [CACACA_site9317]”: 7.39; “ATGGGACATATATATACACACATATATATATATATA [CACACA_site1202]”: 9.42. As to “ACATCTCTTATATATTCACACACATATATATAATTA [CACACA_site8424]”, the “gcPBM binding intensity (ln)” value amounted to 7.34. With “TTAAAAAATTTTTAAGCACACACATAGATAATATAT [CACACA_site8440]”, the “gcPBM binding intensity (ln)” value came to 7.27. The result for “TTTTTTTTTTAATTCGCACACTGTCTTCATGCAATT [CACACA_site4882]” reads 8; that for “GCACATCTATATGAAACACACATGGAAACATCTCTT [CACACA_site7793]”, 7.07. Next, “AGCATTAAAAATGGAATGGAATTAAGCTATATATTA [CACACA_negctrl_site1571]”: 6.63; “GAAACTTCAAGAAATGCACACAATAAAATAAATAAA [CACACA_site1549]”: 7.65; “AGTATATATTATATATATATATATATATTATATATG [TGCATGCA_negctrl_site99]”: 7.34. In the case of “ATAGAATATTATATTACACACAGAATAATAAAAAAT [CACACA_site86]”, the “gcPBM binding intensity (ln)” value was found to be 6.92. For “CATTTCGAAAAAAAATGTACTTATTATATTTATATA [XGTACX_site6752]”, the “gcPBM binding intensity (ln)” value was 6.8. Consider “TGTATATATTATAAAAGTACATAATATTCTTAGATA [XGTACX_site5623]”, for which the “gcPBM binding intensity (ln)” value worked out at 6.84. The result for “TTATCTTACATAAATTATAACAATAATATGTGTATA [XGTACX_negctrl_site379]” reads 6.7; that for “ACCATACATACATACACACACACACCCATATATATA [CACACA_site2917]”, 7.52.

In the case of “TTTCATGTTTTAAAGTGTACATAAATATATTATATG [XGTACX_site3367]”, the “gcPBM binding intensity (ln)” value turned out to be 7.15. As for “TTGTGTTTGCGTAAATGTACGGAAAGACTTGAAGAC [XGTACX_site7235]”, the “gcPBM binding intensity (ln)” value amounted to 7.66. For the sequence “TTTTTAATAAAATGATTGATAATTATTAAATTAAAA [CACACA_negctrl_site488]”, the “gcPBM binding intensity (ln)” value amounted to 6.53. For “TTGTTAGAGTATATTGAAAGGATAACCTTTTTTTAT [XGTACX_negctrl_site122]”, the “gcPBM binding intensity (ln)” value came to 6.7.

Regarding “TAACATATCTTTAATACACACTTAAAAAAGTACTTA [CACACA_site4532]”, the “gcPBM binding intensity (ln)” value was found to be 6.97. The result for “ACACTTAAATATTGTTGTACAAAATGATAAAATGTA [XGTACX_site4588]” reads 7.13; that for “GGAAACACAATATATACACACATATATATATATATA [CACACA_site235]”, 9.14. The result for “TTGATGTATACAATGTAGATTATTTAATATTTCAAT [GTGCAC_negctrl_site203]” reads 6.75; that for “TTATATAACCCTCATGCATGCTAAGAAAAAAAAAAC [TGCATGCA_site936]”, 7.07; that for “ATTTATATTATAATATGTACACAAAAAAAATTAGGA [XGTACX_site565]”, 7.19. The result for “TAAAAAGGAAAACACACACACACATATATATATATA [CACACA_site3588]” reads 9.59.

For “ATTTTTAAGCATATCAAAAAAAAAAAAAAAATTAAT [CACACA_negctrl_site980]”, the “gcPBM binding intensity (ln)” value worked out at 6.73. The result for “TTATTATTAAGACACACACACAAAAAAAAAAAAAAA [CACACA_site6805]” reads 7.23; that for “TTTCCAATTAGTTTTGCATGTTGAAAAAATGTTGGA [TGCATGCA_site1035]”, 6.8; that for “TATTTTAACTTCTCATGTACATATATTATGTCTATA [XGTACX_site249]”, 7.22. Consider “TATCATAAACTTCCTTACTATACTTTTCTTATTCAT [CACACA_negctrl_site1341]”, for which the “gcPBM binding intensity (ln)” value worked out at 6.85. Take “CTTTGTAGTATATTAACACACAACTATTTATAATAT [CACACA_site3934]”: the “gcPBM binding intensity (ln)” value came out at 7.1. Next, “TAGATACAGAAACACACACACACATACATATATACA [CACACA_site3437]”: 6.99; “TTATGGAGAGTTATATGTACGAAAAATATGTATAAG [XGTACX_site515]”: 7.27; “AGAATTATTGTTAATGCATGTGGAAGTTAAAATATT [TGCATGCA_site188]”: 7.25.

Turning to “TATTTAAATTGTAAGTGTACATATATAAATGTAAAA [XGTACX_site1609]”, the “gcPBM binding intensity (ln)” value is 7.11. Next, “TATATAGTAATTTATTCACACAATTGGCACACCTCA [CACACA_site4679]”: 6.98. Next, “TATAATATATATTTGTGTCCACAACATTTTTAATAT [XGTACX_site2089]”: 7.25. For the sequence “TAGATACATACACGCACACACATATATAAATAAATA [CACACA_site6157]”, the “gcPBM binding intensity (ln)” value stood at 7.47. Next, “TTACGTATGTATTATGTTGTATATGAAATTAAAAAA [GTGCAC_negctrl_site292]”: 7.09. As to “AAAAAAAACAGACACACACACATACACATACATACA [CACACA_site2857]”, the “gcPBM binding intensity (ln)” value worked out at 7.14.

In the case of “TAATTATGTACTATTATACACACGTTTAATTGTAAA [CACACA_site206]”, the “gcPBM binding intensity (ln)” value came to 7.15. Consider “AATAATATATGGTGTACACAAAAGTATAAATAATTT [CACACA_site5338]”, for which the “gcPBM binding intensity (ln)” value worked out at 7.15. As to “TATAAAAAAATAATAAATAAATAAAAAGATTTCTTT [TGCATGCA_negctrl_site122]”, the “gcPBM binding intensity (ln)” value came out at 6.78. For the sequence “TTGTGAATAACTAAGAAGAAAAAGATAAATATGTAT [TGCATGCA_negctrl_site388]”, the “gcPBM binding intensity (ln)” value is 7.14. The result for “TATTCATGCATATACACACACATATATTTATATTTT [CACACA_site7786]” reads 7.11. With “AATAATATTGAAATGTGTACGTATTTATATTTTATG [XGTACX_site8252]”, the “gcPBM binding intensity (ln)” value came to 7.01.

“TTTTGTTATATTCAATATTTATATATTATAAATATA [CACACA_negctrl_site1705]”: the “gcPBM binding intensity (ln)” value was 7.21. The result for “TTTTTCTTTTTTACAGTGCATAAATATATGTATTGT [GTGCAC_site9399]” reads 7.9. Next, “AGCCATTATAATTCTTGTACATAATATAGCTATTTT [XGTACX_site1723]”: 6.98; “GAGCACCAAAATATATGTACATATGATAAATGTGAA [XGTACX_site1130]”: 7.32. On to “ACATATATATAATATATATTTTTCGTGTGGTGTCAC [CACACA_negctrl_site543]”, for which the “gcPBM binding intensity (ln)” value was 6.97.

As for “ATCATTGAAGTTAAAAATATAAAGTATTCAGAAGGG [XGTACX_negctrl_site560]”, the “gcPBM binding intensity (ln)” value is 7.26. Regarding “AATATATATATAGGATGTACACATAATTCAAATATA [XGTACX_site2755]”, the “gcPBM binding intensity (ln)” value is 7.16.

As for “TCACTTTTATAATATAATATTCTATATCTTATTTTT [GTGCAC_negctrl_site717]”, the “gcPBM binding intensity (ln)” value worked out at 6.95. The result for “TTTTTTATTTTATTTTTTTCTGCTTATCCACATTAG [XGTACX_negctrl_site108]” reads 7.01.

“TTTACACTTTTTTTTGTACACACTAATAAGATTAAC [CACACA_site9304]”: the “gcPBM binding intensity (ln)” value came to 7.31. Next, “TTTTAATTAAATACAAAAAAAAAAAAAAAAAAAAAA [CACACA_negctrl_site1631]”: 6.78. The result for “AAAAAAATTTTTAAAAGTACATTAATATTAATATGT [XGTACX_site5177]” reads 7.06; that for “ACATTACAATTATTATAATCAATATATAACCTCTAA [TGCATGCA_negctrl_site105]”, 7.2; that for “AAATATATTTTTTTTTGTACTCAAAAAGAAAAAAAA [XGTACX_site8540]”, 7.02.

For the sequence “ATAAAATTATATACTCGTACACAAAAAAAAAAAATA [XGTACX_site6035]”, the “gcPBM binding intensity (ln)” value is 6.91. For the sequence “AAAAATTGAATGATGTGTACTTAAAAGAATATAGAA [XGTACX_site6588]”, the “gcPBM binding intensity (ln)” value amounted to 7.06.

As to “TATATAATAACATATGCATGCAAGTAATATAACCAA [TGCATGCA_site324]”, the “gcPBM binding intensity (ln)” value was determined as 7.38. As to “TATAATATATATGTAACACACAAAAGTTATATACTT [CACACA_site2868]”, the “gcPBM binding intensity (ln)” value is 7.1.

Take “ATATATTATATTTAAGTGCATTAATTAAAATGCTTA [GTGCAC_site9403]”: the “gcPBM binding intensity (ln)” value stood at 7.93. As to “AAAAAAAATCAGACAGGTACACATTCCATGTTCAAA [XGTACX_site5380]”, the “gcPBM binding intensity (ln)” value stood at 6.92. Next, “CATTAATATATATATAGTACATATACACCTTCATTA [XGTACX_site8473]”: 7. Next, “AAAATAAATATAAAATGTACTTATATATATATATAT [XGTACX_site7803]”: 9.08; “ATAATTAAATAAAAAAGTACACATACATCATAATGC [XGTACX_site7656]”: 7.11; “CAATTAAAAAATAATACATGCATATAAATAGATATT [TGCATGCA_site427]”: 6.88. In the case of “TATGAAGTGCACAATACACACTAATTCTATATAAAT [CACACA_site7269]”, the “gcPBM binding intensity (ln)” value came out at 11.2. The result for “TAAGAATACGAAAGGTGTACACTGTGGAGACTTCAA [XGTACX_site2619]” reads 7.36; that for “TTGCACTCGTAAAAAGCACACATATAAAAACATTTA [CACACA_site7997]”, 8.15; that for “TTAAAAATGTTATAATGTACATATAATATTTTATGA [XGTACX_site5954]”, 7.01.

As for “ATTATAAATATAAATATAAATATATATTGTTCCGCA [TGCATGCA_negctrl_site470]”, the “gcPBM binding intensity (ln)” value was 6.6. Next, “TTTATCCTTCTTTTGAGTACTCAAAGAGACCTATAA [XGTACX_site8050]”: 7.36; “AAAAAAAACAGACACACACACAAATATTTATATATC [CACACA_site6342]”: 6.89. The result for “TATATATATATATATATATATATTTTTATTATATAT [XGTACX_negctrl_site89]” reads 9.32; that for “ATTATAAATAAAATATGTACATATGTATAAATACAT [XGTACX_site4002]”, 7.05; that for “AAAACACATACTATATGTACATATAATAATTTATAT [XGTACX_site4525]”, 7.09.
